In paper PMC4336329 (PLoS ONE, 2015):
Hit rate of the full screen: of about 310,000 compounds, about 2,200 (0.71%) showed an effect of 50% or more. The effect is printed as a negative number. The list shows a part of the results.

biological target: human ether-à-go-go-related gene (hERG) potassium channel (human, UniProt Q12809); experiment: primary screen, population patch clamp on CHO cells stably expressing hERG
Sequence (Q12809 whole entry, looked up): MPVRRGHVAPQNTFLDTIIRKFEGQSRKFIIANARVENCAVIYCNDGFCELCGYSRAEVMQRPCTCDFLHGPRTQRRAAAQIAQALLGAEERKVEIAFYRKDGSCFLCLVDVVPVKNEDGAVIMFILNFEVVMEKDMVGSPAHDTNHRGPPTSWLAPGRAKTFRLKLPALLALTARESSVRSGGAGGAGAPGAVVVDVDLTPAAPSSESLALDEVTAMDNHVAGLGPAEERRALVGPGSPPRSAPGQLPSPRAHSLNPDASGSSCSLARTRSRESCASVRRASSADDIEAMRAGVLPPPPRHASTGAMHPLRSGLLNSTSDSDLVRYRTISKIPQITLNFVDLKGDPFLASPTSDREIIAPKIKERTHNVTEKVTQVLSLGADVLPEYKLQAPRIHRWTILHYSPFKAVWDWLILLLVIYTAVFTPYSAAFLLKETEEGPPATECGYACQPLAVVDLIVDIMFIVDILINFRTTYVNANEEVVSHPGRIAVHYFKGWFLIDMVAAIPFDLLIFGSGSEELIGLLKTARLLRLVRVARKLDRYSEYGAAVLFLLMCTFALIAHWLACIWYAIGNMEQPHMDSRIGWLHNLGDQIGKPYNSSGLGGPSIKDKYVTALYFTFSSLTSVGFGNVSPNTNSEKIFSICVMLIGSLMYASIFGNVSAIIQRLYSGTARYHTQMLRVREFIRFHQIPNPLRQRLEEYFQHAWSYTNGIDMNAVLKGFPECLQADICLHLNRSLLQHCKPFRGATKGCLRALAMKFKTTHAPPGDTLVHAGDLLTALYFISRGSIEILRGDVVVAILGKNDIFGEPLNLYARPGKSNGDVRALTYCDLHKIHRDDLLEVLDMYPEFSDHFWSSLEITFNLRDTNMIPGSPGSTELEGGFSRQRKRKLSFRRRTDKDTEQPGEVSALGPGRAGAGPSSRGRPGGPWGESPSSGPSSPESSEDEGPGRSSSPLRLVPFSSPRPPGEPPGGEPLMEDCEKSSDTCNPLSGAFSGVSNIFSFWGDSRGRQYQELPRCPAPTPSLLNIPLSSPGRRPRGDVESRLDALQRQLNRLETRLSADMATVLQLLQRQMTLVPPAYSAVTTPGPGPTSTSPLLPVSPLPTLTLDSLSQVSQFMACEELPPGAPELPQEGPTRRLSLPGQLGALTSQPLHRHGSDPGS

SMILES	hERG current change (%, negative = inhibition) at 1uM
C/C=C/C=C/C(=O)Nc1cccc(C2=NOC3(C2)C[C@H](C(N)=O)N(C(=O)CC(c2ccccc2)c2ccccc2)C3)c1 (stereo partly shown)	16.4%
CC(C)CCn1c(SCC(=O)NC2CCS(=O)(=O)C2)nc2cc(Cl)ccc2c1=O (stereo not shown)	6.59%
O=C(CN1CCCCCCC1)Nc1cccc(Cl)c1Cl	10.2%
COC(=O)C1CCN(C(=O)COC(=O)CC(NC(N)=O)c2ccc(Cl)cc2)CC1 (stereo not shown)	9.18%
O=C(CSc1ccc(Cl)cc1)Nc1cccc(-c2nc3ccccc3[nH]2)c1	8.3%
CCCCOC(=O)Nc1nnc(CC(=O)NCc2ccccc2)s1	9.19%
Cc1ccccc1CS(=O)(=O)c1ncc(Cl)c(C(=O)Nc2ccc(F)cc2)n1	33.9%
CCc1ccc(-n2ccc(=O)c(C(=O)O)n2)cc1	16%
CCOC(=O)C(NC(C)=O)C(=O)Nc1ccc(C(C)C)cc1 (stereo not shown)	16.8%
CC(=O)/C=N/Nc1ccccc1	-8.81%
COc1cc(/C=N/N=C/c2cc(OC)c(O)c(OC)c2)cc(OC)c1O	9.21%
O=C(COC(=O)c1cccnc1Cl)NCc1ccco1	14.8%
CCC1SC(CC)C(=O)N(CC(=O)NCc2ccc(F)cc2)C1=O (stereo not shown)	4.42%
CCCC(=O)c1ccc(N2CCN(S(=O)(=O)c3ccc(C)cc3)CC2)c(F)c1	7.96%
CC1CC(=O)Nc2ccccc2N1C(=O)CN1CCN(c2ccccc2)CC1 (stereo not shown)	11.2%
COC(=O)C(C)Oc1ccc2cc(-c3ccccc3)c(=O)oc2c1 (stereo not shown)	12.5%
Cc1ccc(Cn2cnc3c(cnn3C(C)(C)C)c2=O)cc1	14.3%
CCOC(=O)c1c(NC(=O)CSc2nnc3c(n2)[nH]c2ccccc23)sc2c1CCN(C)C2	8.73%
Cn1c(CCc2ccccc2)nnc1SCC(N)=O	11.9%
Clc1cccc(CN2CCN(c3nc4nonc4nc3NC3CC3)CC2)c1	9.02%
Cc1ccc(C(C(=O)NC2CCCCC2)N(Cc2ccco2)C(=O)Cn2cnc3ccccc32)cc1 (stereo not shown)	12.6%
Cc1ccc(/C=C/c2onc(C)c2S(=O)(=O)N2CCC(C(=O)NC(C)(C)C)CC2)cc1	4.91%
CC1(C)CC(=O)c2c(O)cc(OCc3ccc([N+](=O)[O-])cc3)cc2O1	20.5%
Cc1ccc(Cl)cc1NC(=O)CCC(=O)Nc1cc(Cl)ccc1C	12.5%
O=C(Cn1cnc2ccccc21)N/N=C/c1cccs1	11.5%
Cc1nn(C2CCS(=O)(=O)C2)c(Cl)c1/C=C/C(=O)OCC(=O)Nc1ccccc1[N+](=O)[O-] (stereo not shown)	15.5%
Cc1cc(Sc2nnc(/N=C/N(C)C)s2)c2ccccc2n1	11.2%
CCN(CC)S(=O)(=O)c1ccc(C)c(NC(=O)COc2ccc(Cl)cc2Br)c1	9.3%

SMILES	hERG current change (%, negative = inhibition) at 1uM
COc1cc2c(cc1OC)-c1cc(N3CCc4ccccc43)nc(=O)n1CC2	13.7%
COc1cccc(NC(=O)c2c(F)cccc2F)c1	3.18%
O=C(NC1CCCCC1)c1cc2cc(Br)ccc2o1	17.5%
Cc1cccc(N2CCN(C(=O)Cc3ccc(-n4c(=O)[nH]c5ccsc5c4=O)cc3)CC2C)c1 (stereo not shown)	4.54%
N#C/C(=C\c1ccc(F)cc1)c1n[nH]c(Cn2cncn2)n1	11.3%
Nc1ccc(C(=O)OCC(=O)Nc2ccc([N+](=O)[O-])cc2C(F)(F)F)cc1	3.48%
CCC(C)[C@@H](CN(N=O)[C@@H](Cc1ccccc1)CN(C)N=O)N(CCc1ccccc1)N=O.[Na+] (stereo partly shown)	4.62%
C/C(=N\NC(=O)C1CC1c1ccccc1)c1cccc([N+](=O)[O-])c1 (stereo not shown)	14.4%
CCOCCCNC(=O)c1ccc(CS(=O)(=O)Cc2ccccc2F)o1	0.194%
COC(=O)c1nn(-c2ccccc2)c(=O)cc1Oc1ccc(Cl)cc1	-7.65%
O=C(CCn1c(=S)[nH]c2cc3c(cc2c1=O)OCO3)NCc1cccc(Cl)c1	11%
COc1ccccc1N1CCN(c2ncc(C(=O)N3CCN(c4cccc(Cl)c4)CC3)c3ccccc23)CC1	2.99%
CC(=O)Nc1ccc(Cc2nc3ccccc3[nH]2)cc1	17.5%
Cn1c(=O)c2c(nc(Oc3cccc(Br)c3)n2C)n(C)c1=O	2.29%
CCOC(=O)c1sc(=NC(=O)c2ccc(S(=O)(=O)N(C)c3ccccc3)cc2)n(C)c1C	14.6%
COc1ccccc1CNC(=O)CSc1ccc(-c2ccccn2)nn1	4.54%
COC(=O)NCC(c1ccco1)N1CCN(c2ccccc2)CC1 (stereo not shown)	11%
COc1nc(C)ccc1-c1noc(-c2ccncc2)n1	6.2%
CSCCC(NC(=O)COc1ccccc1)C(=O)Nc1ccc(C)cc1 (stereo not shown)	5.05%
COc1ccc(OC)c(-c2nn(-c3ccccc3)cc2C(=O)N2CCc3ccccc3C2)c1	9.32%
CCN(C(=O)CSc1cc(-c2ccccc2)c2ccc(OC)cc2n1)C1CCS(=O)(=O)C1 (stereo not shown)	2.06%
Cc1ccc(NC(=O)Nc2ccccc2)cc1[N+](=O)[O-]	12.9%
Cc1cc(=O)[nH]c2c3ccccc3nn12	13.1%
C/C(=N\Nc1ccc(C)c(Cl)c1)c1ccncc1	21.7%
CC(=O)Nc1cccc(NC(=O)CSc2nccn2Cc2ccc(F)cc2)c1	10.9%
Cc1ncc(CN2CCC(CO)(CCc3ccccc3)CC2)s1	-15.3%
CCOC(=O)N1CCN(S(=O)(=O)c2ccc(C(=O)N(CCCN(C)C)c3nc4ccc(OC)cc4s3)cc2)CC1.Cl	-36.7%
